According to US20260201058A1 (SICHUAN HUIYU PHARMACEUTICAL, published 2026):
Like-named read-outs stand apart in the source and are kept apart here.

B1: CD3-PDL1-MSLN trispecific antibody 5Y3-7 (other)
light: [omitted - about 100 residues][omitted - about 100 residues]
heavy: EVQLVESGGGLVQPGGSLRLSCAASGFTFNTYAMNWVRQAPGKGLEWVARIRSKYNNYATYYADSVKGRFTISRDDSKSSLYLQMNSLKTEDTAVYYCVRHGNFGNNYVSWFASWGQGTLVTVSSASTKGPSVFPLAPSSKSTSGGTAALGCLVKDYFPEPVTVSWNSGALTSGVHTFPAVLQSSGLYSLSSVVTVPSSSLGTQTYICNVNHKPSNTKVDKKVEPKSCDKTHTCPPCPAPEAAGAPSVFLFPPKPKDTLMISRTPEVTCVVVDVSHEDPEVKFNWYVDGVEVHNAKTKPREEQYNSTYRVVSVLTVLHQDWLNGKEYKCAVSNKALPAPIEKTISKAKGQPREPQVYTLPPSRDELTKNQVSLWCLVKGFYPSDIAVEWESNGQPENNYKTTPPVLDSDGSFFLYSKLTVDKSRWQQGNVFSCSVMHEALHNHYTQKSLSLSPGGGGGSGGGGSGGGGSEVQLVESGGGLIQPGGSLRLSCAASGNIGSIRHMGWVRQAPGKERELVATITTVGTTYYANFVKGRFTISRDNSKNTLYLQMNSLRAEDTAVYYCRATAHPTDYWGQGTLVTVSS
chain: EVQLVESGGGLIQPGGSLRLSCAASGNIGSIRHMGWVRQAPGKERELVATITTVGTTYYANFVKGRFTISRDNSKNTLYLQMNSLRAEDTAVYYCRATAHPTDYWGQGTLVTVSSGGGGSDKTHTCPPCPAPEAAGAPSVFLFPPKPKDTLMISRTPEVTCVVVDVSHEDPEVKFNWYVDGVEVHNAKTKPREEQYNSTYRVVSVLTVLHQDWLNGKEYKCAVSNKALPAPIEKTISKAKGQPREPQVYTLPPSRDELTKNQVSLSCAVKGFYPSDIAVEWESNGQPENNYKTTPPVLDSDGSFFLVSKLTVDKSRWQQGNVFSCSVMHEALHNHYTQKSLSLSPGGGGGSGGGGSGGGGSEVQLLESGGGLVQPGGSLRLSCAASGRTFSSYVMGWFRQAPGKGREFVSAISRAGSTYSADSVKGRFTISRDNSKNTLYLQMNSLRAEDTAVYYCAAGSSPTAIFGKSGMDYWGQGTQVTVSS
notes: Trispecific, three chains, structure as for 5Y3-1
B2: CD3-PDL1-MSLN trispecific antibody 5Y3-16 (other)
light: [omitted - about 100 residues][omitted - about 100 residues]
heavy: B1 heavy
chain: EVQLVESGGGLIQPGGSLRLSCAASGNIGSIRHMGWVRQAPGKERELVATITTVGTTYYANFVKGRFTISRDNSKNTLYLQMNSLRAEDTAVYYCRATAHPTDYWGQGTLVTVSSGGGGSDKTHTCPPCPAPEAAGAPSVFLFPPKPKDTLMISRTPEVTCVVVDVSHEDPEVKFNWYVDGVEVHNAKTKPREEQYNSTYRVVSVLTVLHQDWLNGKEYKCAVSNKALPAPIEKTISKAKGQPREPQVYTLPPSRDELTKNQVSLSCAVKGFYPSDIAVEWESNGQPENNYKTTPPVLDSDGSFFLVSKLTVDKSRWQQGNVFSCSVMHEALHNHYTQKSLSLSPGGGGGSGGGGSGGGGSEVQLVESGGGLVQPGGSLRLSCAASGGTFLTYGMGWFRQAPGKGLEFVAAINWSGSMTNYADSVKGRFTISRDNAKNTVYLQMNSLRAEDTAVYYCAAKTGAVAYIQKNEYDYWGQGTQVTVSS
notes: as for B1

What was measured:
[1] = target: T1, human MSLN on MC38/MSLN cells (human, UniProt Q13421 296-598); test: flow cytometry on MC38/MSLN cells (human MSLN)
T1 construct: whole, on cells; also called huMSLN; cells expressing MSLN

[2] = target: T2, human PD-L1 on CHO-huPDL1 cells (human, UniProt Q9NZQ7); test: flow cytometry on CHO-huPDL1 cells
T2 construct: whole, on cells; also called CHO-hPDL1
From the text: After washing with PBS, a flow cytometer was used for detection.

[3] = target: T3, hFc-tagged human MSLN recombinant protein (huMSLN-hFc, Kactus Biosystems, MSL-HM280) (human, UniProt Q13421 296-580); test: Carterra HC200M chip, antibody captured via anti-human IgG Fc, 1:1 model
T3 construct: Bought protein; also called huMSLN-Fc; human MSLN-Fc

[4] = target: T4, human CD3εγ (acrobiosystems, CDG-H52W5) (human, UniProt P07766 23-126; P09693 23-116); test: as above
T4 construct: Bought protein
T4 sequence (P07766 23-126, chain 1 of 2): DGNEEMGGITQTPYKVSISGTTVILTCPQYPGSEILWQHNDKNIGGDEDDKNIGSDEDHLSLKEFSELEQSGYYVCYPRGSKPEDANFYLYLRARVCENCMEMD
T4 sequence (P09693 23-116, chain 2 of 2, further chain): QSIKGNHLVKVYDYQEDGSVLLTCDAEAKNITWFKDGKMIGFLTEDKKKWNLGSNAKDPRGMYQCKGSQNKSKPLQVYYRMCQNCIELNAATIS

[5] = target: T5, human PD-L1 protein (ACRO, PD1-H5258) (human, UniProt Q9NZQ7 partial chain); test: as above
T5 construct: Bought protein; also called Human PDL1-Fc

[6] = target: CD3 on human Jurkat cells (ATCC TIB-152) (human); test: flow cytometry on Jurkat cells
[7] = target: T1, human MSLN on MC38/MSLN cells; test: flow cytometry on MC38/MSLN cells (human MSLN); remark: listed apart in the source
T1 sequence (Q13421 other isoform, or with tags, fused parts or gaps limits assumed): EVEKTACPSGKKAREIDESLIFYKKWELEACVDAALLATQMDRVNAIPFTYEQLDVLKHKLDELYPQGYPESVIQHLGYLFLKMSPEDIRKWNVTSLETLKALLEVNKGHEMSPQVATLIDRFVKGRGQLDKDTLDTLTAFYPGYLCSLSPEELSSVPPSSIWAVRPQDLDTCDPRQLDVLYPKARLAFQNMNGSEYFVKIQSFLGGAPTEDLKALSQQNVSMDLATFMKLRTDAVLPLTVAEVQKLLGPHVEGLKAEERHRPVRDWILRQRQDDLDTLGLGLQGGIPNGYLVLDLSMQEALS

[8] = target: T2, human PD-L1 on CHO-huPDL1 cells; test: flow cytometry blocking assay on CHO-huPDL1 cells; blocked ligand human PD-1-mFc, 1.25 ug/mL, detected with PE anti-mouse IgG Fc
T2 sequence (Q9NZQ7 19-290): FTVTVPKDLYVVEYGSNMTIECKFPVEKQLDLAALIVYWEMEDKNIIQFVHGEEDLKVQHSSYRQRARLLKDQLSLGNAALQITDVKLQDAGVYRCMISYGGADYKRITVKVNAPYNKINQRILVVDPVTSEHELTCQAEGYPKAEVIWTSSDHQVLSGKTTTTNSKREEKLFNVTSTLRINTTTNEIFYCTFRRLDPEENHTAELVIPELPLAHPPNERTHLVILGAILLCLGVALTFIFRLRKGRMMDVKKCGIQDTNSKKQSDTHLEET
From the text: After washing with PBS, a flow cytometer was used for detection. EC₅₀ was fitted with the experimental data by GraphPad Prism.

EC50 (read off the curve) [1] | EC50 (read off the curve) [2] | Kd [3] | Kd [4] | Kd [5] | EC50 [6] | EC50 (read off the curve) [7] | IC50 (read off the curve) [8] | Binder
~2 nM | ~50 nM | 4.53 nM | 552 nM | 133 nM | 47.8 nM |  |  | B1
 | ~0.6 nM | 7.98 nM | 464 nM | 0.121 nM | 31 nM | ~2 nM | ~0.6 nM | B2
